Consider 20 compounds from PubChem BioAssay AID1745853 (National Center for Advancing Translational Sciences (NCATS), 2022).

Common to all, as to test: Primary Screen for Target Class Profiling of Small Molecule Inhibitors of Methyltransferases
Assay [1] addresses Glycine N-methyltransferase (Homo sapiens) (UniProt Q14749). The settings on record: purified enzyme, MTase-Glo SAH luminescence; measured here: GNMT inhibition; at 40 µM; stronger effect = lower value. In short, it runs like this: (§1)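 Each enzyme was reacted with SAM and its substrate, with compounds tested once at 40 uM; SAH formed was read by MTase-Glo luminescence.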
Assay [2] concerns the target Guanidinoacetate N-methyltransferase (Homo sapiens) (UniProt Q14353). Conditions: purified enzyme, MTase-Glo SAH luminescence; measured here: GAMT inhibition; at 40 µM; stronger effect = lower value. In short, it runs like this:
as §1

Assay [3] addresses Histamine N-methyltransferase (Homo sapiens) (UniProt P50135). The settings on record: purified enzyme, MTase-Glo SAH luminescence; measured here: HNMT inhibition; at 40 µM; stronger effect = lower value. A digest of the protocol:
as §1

Assay [4] addresses Nicotinamide N-methyltransferase (Homo sapiens) (UniProt P40261). The settings on record: purified enzyme, MTase-Glo SAH luminescence; measured here: NNMT inhibition; at 40 µM; stronger effect = lower value. In short, it runs like this:
as §1

The target in assay [5] is Phenylethanolamine N-methyltransferase (Homo sapiens) (UniProt P11086). The settings on record: purified enzyme, MTase-Glo SAH luminescence; measured here: PNMT inhibition; at 40 µM; stronger effect = lower value. In short, it runs like this: as §1

Some of the results follow. Shown are side measurements of this screen, not its main read-out; they come without a call.
% is set by controls: 0 for no effect and ±100 for the full control effect.

`CCOc1ccc(CNC(=O)C(C)n2ccc3cc(S(=O)(=O)N4CCCC4)ccc32)cc1` (stereo not given): the activity change, negative = inhibition in assay [1] is 2.7%; in assay [2], 3.12%; in assay [3], -3.98%; in assay [4], -3.98%; in assay [5], -3.17%.
Consider `CC1(C(=O)NC2CCCCC2)Cn2c(cc3sccc32)C(=O)N1Cc1ccc(F)cc1` (stereo not given), for which the activity change, negative = inhibition in assay [1] was 0.386%; in assay [2] it was 2.52%; in assay [3], -3%; in assay [4], -0.821%; in assay [5], -2.87%.
Take `CC(C)c1cc(C(=O)N2CC[C@H](CO)[C@H](O)C2)cs1`: the activity change, negative = inhibition was -4.08% in assay [1]; -5.51% in assay [2]; -2.81% in assay [3]; -4.7% in assay [4]; -8.2% in assay [5].
As for `C/C=C1\[C@H](O[C@@H]2O[C@H](CO)[C@@H](O)[C@H](O)[C@H]2O)OC=C(C(=O)OC)[C@H]1CC(=O)OC`, the activity change, negative = inhibition in assay [1] was 0.884%; in assay [2], 2.65%; in assay [3], 9.02%; in assay [4] it was -13.5%; in assay [5], 6.94%.
Consider `CC(C)CCCC1CN(C(=O)CN2CCCC2=O)CCO1` (stereo not given), for which the activity change, negative = inhibition was -1.33% in assay [1]; -15.9% in assay [2]; -1.17% in assay [3]; -9.99% in assay [4]; -5.43% in assay [5].
With `Cc1cc(C(=O)NC2CC(C)(C)Cc3nc(N4CCOCC4)ncc32)nn1C` (stereo not given), the activity change, negative = inhibition in assay [1] is -4.45%; in assay [2], -2.77%; in assay [3], -1.75%; in assay [4], -8.11%; in assay [5], -6.36%.
The matching figures for `Cn1c2c(c3ccccc31)C(C(=O)NCc1ccc(F)cc1)N(c1ccc(F)cc1)C(=O)CS2` (stereo not given): -0.797%, 3.71%, 7.4%, 1.94% and 3.05%.
Turning to `Cc1noc([C@H]2CCN(S(C)(=O)=O)C[C@H]2NC(=O)C2CC2)n1`, the activity change, negative = inhibition in assay [1] was -5.11%; in assay [2] it was -11.6%; in assay [3], -2.04%; in assay [4], -7.68%; in assay [5], -9.28%.
The matching figures for `O=C1CC2(CCN(CC3CCOCC3)C2)Nc2ccccc2N1` (stereo not given): -1.46%, -0.293%, 1.51%, -1.12% and 2.72%.
For `Cc1cccc(N2C(=O)c3ccccc3CC2(C)C(=O)NCc2ccccc2C)c1` (stereo not given) the same measures were 1.81%, 7.46%, 3.95%, 0.727% and 4.69%.
Regarding `Cc1cccc(CNC(=O)C2(C)Cn3cnc(C(=O)N(C)Cc4ccccc4)c3C(=O)N2C2CC2)c1` (stereo not given), the activity change, negative = inhibition in assay [1] came to 5.96%; in assay [2], 0.67%; in assay [3], 11%; in assay [4], 5.54%; in assay [5] it was 9.34%.
Consider `CCCC(C)N1CC2(CCN(C(=O)c3cnn4c3CCCC4)CC2)OC1=O` (stereo not given), for which the activity change, negative = inhibition in assay [1] is -5.35%; in assay [2], -8.46%; in assay [3], -3.11%; in assay [4] it was -20.3%; in assay [5] it was -10.5%.
In the case of `CCC(C)NC(=O)c1ccc2c(=O)n(C(C)C)c3nn(CC(=O)Nc4cccc(F)c4)c(=O)n3c2c1` (stereo not given), the activity change, negative = inhibition in assay [1] was 0.768%; in assay [2] it was 0.279%; in assay [3], -3.9%; in assay [4], -3.97%; in assay [5], -2.16%.
On to `NCCCCN=C(N)N`, for which the activity change, negative = inhibition in assay [1] was -0.817%; in assay [2], 6.67%; in assay [3], -7.71%; in assay [4] it was -3.56%; in assay [5] it was 8.46%.
For `CC(C(=O)NCCc1ccccn1)C1CCOCC1` (stereo not given), the activity change, negative = inhibition is -3.28% in assay [1]; -7.99% in assay [2]; -2.36% in assay [3]; -10.5% in assay [4]; -10.9% in assay [5].
With `CC(=O)Oc1ccccc1C(=O)O`, the activity change, negative = inhibition turned out to be 1.89% in assay [1]; 14.8% in assay [2]; 5.97% in assay [3]; 0.195% in assay [4]; 13.6% in assay [5].
For the compound `Cc1cc2c(cc3n2CC(C)(C(=O)NC2CCCCCCC2)N(CCN2CCOCC2)C3=O)o1` (stereo not given), the activity change, negative = inhibition in assay [1] is 4.4%; in assay [2] it was 0.047%; in assay [3], 8.92%; in assay [4] it was 1.09%; in assay [5], 5.88%.
Take `O=C(O)[C@H]1NCCC[C@H]1C(=O)O`: the activity change, negative = inhibition in assay [1] is 10.5%; in assay [2], 12.2%; in assay [3], 12.9%; in assay [4], -4.82%; in assay [5], -0.529%.
As to `Cc1ccc(Cl)cc1NC(=O)CSc1nnc2n(CC(C)C)c(=O)c3ccccc3n12`, the activity change, negative = inhibition is -3.69% in assay [1]; -0.769% in assay [2]; 2.36% in assay [3]; -7.96% in assay [4]; -3.43% in assay [5].
Turning to `CC(=O)NCC(=O)N1c2ccccc2CC1c1nc(C(C)C)no1` (stereo not given), the activity change, negative = inhibition was 1.18% in assay [1]; -1.92% in assay [2]; -0.213% in assay [3]; -0.368% in assay [4]; 0.054% in assay [5].
